From the antibiotic and cytotoxicity screens of Wong et al. (2023)
Some of the results follow.

Key:
HSkMC = human skeletal muscle cells; test: cytotoxicity call (relative viability < 0.9); settings: 10 µM
HepG2 = test: cytotoxicity call (relative viability < 0.9); settings: 10 µM
S. aureus RN4220 = test: growth inhibition call (relative growth <= 0.2); settings: 50 µM

In the case of `COCCNC(=O)C[C@H]1C[C@H]2c3cc(NC(=O)Nc4ccc(C(F)(F)F)cc4)ccc3O[C@H]2[C@@H](CO)O1`, the cytotoxicity call (HSkMC) is reported as “inactive”, the cytotoxicity call (HepG2) is reported as “inactive” and the growth inhibition call (S. aureus RN4220) is reported as “inactive”.

In the case of `CCOc1cc2ncc(C#N)c(Nc3ccc(OCc4ccccn4)c(Cl)c3)c2cc1NC(=O)/C=C/[C@H]1CCCN1C`, the cytotoxicity call (HSkMC) is reported as “inactive”, the cytotoxicity call (HepG2) is reported as “active” and the growth inhibition call (S. aureus RN4220) is reported as “inactive”.

In the case of `Cc1noc(C)c1S(=O)(=O)Nc1ccc2c(c1)CC(=O)N([C@@H](C)CO)C[C@H](C)[C@H](CN(C)S(=O)(=O)c1ccccc1)O2`, the cytotoxicity call (HSkMC) is reported as “inactive”, the cytotoxicity call (HepG2) is reported as “inactive” and the growth inhibition call (S. aureus RN4220) is reported as “inactive”.

With `COCC(=O)N1C[C@@H](C)[C@H](OC)CN(C)C(=O)c2cc(NC(=O)Nc3cccc(F)c3)ccc2OC[C@H]1C` the cytotoxicity call (HSkMC) was “inactive”, the cytotoxicity call (HepG2) was “inactive” and the growth inhibition call (S. aureus RN4220) was “inactive”.

In the case of `CN(C)CCC(c1ccc(Br)cc1)c1ccccn1.O=C(O)C=CC(=O)O` (stereo unspecified), the cytotoxicity call (HSkMC) is reported as “inactive”, the cytotoxicity call (HepG2) is reported as “active” and the growth inhibition call (S. aureus RN4220) is reported as “inactive”.

In the case of `C[C@@H]1CN([C@@H](C)CO)C(=O)CCCn2cc(nn2)CO[C@@H]1CN(C)S(=O)(=O)c1ccc(Cl)cc1`, the cytotoxicity call (HSkMC) is reported as “inactive”, the cytotoxicity call (HepG2) is reported as “inactive” and the growth inhibition call (S. aureus RN4220) is reported as “inactive”.

With `COCCNC(=O)Cn1cnc2c1c(=O)n(C)c(=O)n2C` the cytotoxicity call (HSkMC) was “inactive”, the cytotoxicity call (HepG2) was “inactive” and the growth inhibition call (S. aureus RN4220) was “inactive”.

With `C[C@@H]1CN([C@H](C)CO)C(=O)c2cc(NC(=O)Nc3cccc4ccccc34)ccc2O[C@@H]1CN(C)Cc1ccncc1` the cytotoxicity call (HSkMC) was “inactive”, the cytotoxicity call (HepG2) was “inactive” and the growth inhibition call (S. aureus RN4220) was “inactive”.

With `CN1C(=O)c2cc(NC(=O)c3cccs3)ccc2OC[C@@H]2O[C@@H](CC(=O)NCCN3CCCCC3)CC[C@@H]21` the cytotoxicity call (HSkMC) was “inactive”, the cytotoxicity call (HepG2) was “inactive” and the growth inhibition call (S. aureus RN4220) was “inactive”.

In the case of `C[C@@H]1CN([C@@H](C)CO)C(=O)c2cccc(NC(=O)NC3CCCCC3)c2O[C@H]1CN(C)Cc1ccc(Oc2ccccc2)cc1`, the cytotoxicity call (HSkMC) is reported as “inactive”, the cytotoxicity call (HepG2) is reported as “inactive” and the growth inhibition call (S. aureus RN4220) is reported as “inactive”.

For `CCN(CC)CCNC(=O)c1cc(Cl)c(N)cc1OC.Cl`, the cytotoxicity call (HSkMC) was “inactive”, the cytotoxicity call (HepG2) was “inactive” and the growth inhibition call (S. aureus RN4220) was “inactive”.

With `C[C@@H]1CN([C@@H](C)CO)C(=O)c2cc(NC(=O)Nc3ccccc3)ccc2O[C@H]1CN(C)Cc1ccc(Cl)c(Cl)c1` the cytotoxicity call (HSkMC) was “inactive”, the cytotoxicity call (HepG2) was “active” and the growth inhibition call (S. aureus RN4220) was “inactive”.

`COCC(=O)Nc1ccc2c(c1)C(=O)N(C)C[C@@H](OC)[C@@H](C)CN(C(=O)Cc1ccccn1)[C@H](C)CO2` was tested, and the cytotoxicity call (HSkMC) was “inactive”, the cytotoxicity call (HepG2) was “inactive” and the growth inhibition call (S. aureus RN4220) was “inactive”.

In the case of `COc1ccc(NC(=O)N(C)C[C@@H]2Oc3c(NC(=O)C4CCOCC4)cccc3C(=O)N([C@H](C)CO)C[C@@H]2C)cc1`, the cytotoxicity call (HSkMC) is reported as “inactive”, the cytotoxicity call (HepG2) is reported as “inactive” and the growth inhibition call (S. aureus RN4220) is reported as “inactive”.

With `C[C@@H]1CCCCO[C@@H](CN(C)C(=O)CCC(F)(F)F)[C@@H](C)CN([C@H](C)CO)C(=O)c2cc(NC(=O)Nc3ccc4c(c3)OCO4)ccc2O1` the cytotoxicity call (HSkMC) was “inactive”, the cytotoxicity call (HepG2) was “inactive” and the growth inhibition call (S. aureus RN4220) was “inactive”.

For `O=C1CN(S(=O)(=O)Cc2ccccc2)C[C@@H]2[C@H](c3ccc(C#Cc4cccc(F)c4)cc3)[C@H](CO)N12`, the cytotoxicity call (HSkMC) was “inactive”, the cytotoxicity call (HepG2) was “active” and the growth inhibition call (S. aureus RN4220) was “inactive”.

With `CCN(CC)CC(=O)N1c2ccccc2CCc2ccc(NC(=O)c3cc(OC)c(OC)c(OC)c3)cc21` the cytotoxicity call (HSkMC) was “inactive”, the cytotoxicity call (HepG2) was “inactive” and the growth inhibition call (S. aureus RN4220) was “inactive”.

For `CN1CCN(C(=O)C[C@H]2CC[C@@H](NC(=O)Cc3ccccn3)[C@H](CO)O2)CC1`, the cytotoxicity call (HSkMC) was “inactive”, the cytotoxicity call (HepG2) was “inactive” and the growth inhibition call (S. aureus RN4220) was “inactive”.

With `CC(C)NC(=O)Nc1cccc2c1O[C@@H](CN(C)C(=O)NC1CCCCC1)[C@H](C)CN([C@H](C)CO)C2=O` the cytotoxicity call (HSkMC) was “inactive”, the cytotoxicity call (HepG2) was “inactive” and the growth inhibition call (S. aureus RN4220) was “inactive”.

In the case of `C[C@@H]1CN([C@H](C)CO)C(=O)c2cc(-c3cccc(C#N)c3)cnc2O[C@@H]1CN(C)C(=O)C1CCOCC1`, the cytotoxicity call (HSkMC) is reported as “inactive”, the cytotoxicity call (HepG2) is reported as “inactive” and the growth inhibition call (S. aureus RN4220) is reported as “inactive”.

With `O=C(O)c1ccc(CCO)s1` the cytotoxicity call (HSkMC) was “inactive”, the cytotoxicity call (HepG2) was “inactive” and the growth inhibition call (S. aureus RN4220) was “inactive”.

For `NS(=O)(=O)c1cc(-c2nn[nH]n2)c(NCc2cccs2)cc1Cl`, the cytotoxicity call (HSkMC) was “inactive”, the cytotoxicity call (HepG2) was “inactive” and the growth inhibition call (S. aureus RN4220) was “inactive”.

With `O=C(CCCCCNC(=O)OCc1ccc(CN(C(=O)Nc2ccccc2)[C@@H](Cc2ccccc2)Cn2cc(-c3ccccn3)nn2)cc1)NO` the cytotoxicity call (HSkMC) was “inactive”, the cytotoxicity call (HepG2) was “inactive” and the growth inhibition call (S. aureus RN4220) was “inactive”.

For `Cc1noc(C)c1S(=O)(=O)Nc1ccc2c(c1)CC(=O)N([C@H](C)CO)C[C@H](C)[C@@H](CN(C)Cc1ccc(C(=O)O)cc1)O2`, the cytotoxicity call (HSkMC) was “inactive”, the cytotoxicity call (HepG2) was “inactive” and the growth inhibition call (S. aureus RN4220) was “inactive”.

With `C[C@@H]1CCCCO[C@H](CN(C)C(=O)NC2CCCCC2)[C@H](C)CN([C@H](C)CO)C(=O)c2cc(NC(=O)C3CCCCC3)ccc2O1` the cytotoxicity call (HSkMC) was “inactive”, the cytotoxicity call (HepG2) was “inactive” and the growth inhibition call (S. aureus RN4220) was “inactive”.

`C[C@H](CO)N1C[C@H](C)[C@@H](CN(C)C(=O)Nc2ccccc2)OCc2ccccc2-c2c(n(C)c3ccccc23)C1=O` was tested, and the cytotoxicity call (HSkMC) was “inactive”, the cytotoxicity call (HepG2) was “inactive” and the growth inhibition call (S. aureus RN4220) was “inactive”.

In the case of `C[C@H]1CCCCO[C@H](CN(C)C(=O)Nc2cccc3ccccc23)[C@@H](C)CN([C@@H](C)CO)C(=O)c2cc(N(C)C)ccc2O1`, the cytotoxicity call (HSkMC) is reported as “inactive”, the cytotoxicity call (HepG2) is reported as “inactive” and the growth inhibition call (S. aureus RN4220) is reported as “inactive”.
